Data as given in the supplement of paper PMC3334620.
In all, about 33,000 sequences were measured (“E-score (-0.5 to 0.5)”: median about -0.016, highest 2% from about 0.31 on). The list shows a part of the results.

Target: Cst6 (UniProt P40535)
Assay: PBM E-score (8-mer binding enrichment) (E-score (-0.5 to 0.5)); higher = stronger / more preferred TF binding; most listed sequences are background and not binding sites
Conditions: protein concentration: 200 nM; construct: GST-DNA-binding domain
Procedure, shortened: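 Masliner-normalised scans of fluorescent anti-GST signal were the basis for scoring. That signal came from GST-tagged yeast transcription factors applied at about 100-200 nM to double-stranded universal all-10-mer Agilent arrays on fresh or once-stripped slides. Each ungapped eight-base word, pooled with its reverse complement, received an E-score from the Universal PBM Analysis Suite.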

Sequence	PBM E-score
CCCGGGCA	-0.142
AGCGCTAG	-0.149
CTACCTCA	-0.0239
CATGTCCG	-0.219
ACGCAAGG	0.212
AGGGTTGA	-0.108
AAATCCTT	0.0381
CACCGGTC	-0.339
CAGTAGGA	-0.163
TACCGGCA	-0.0244
ATAACAGA	0.204
ACCGACTG	-0.145
AACAAAAC	0.198
CCCGTTCC	-0.132
AAACTTAA	0.224
AGTTAGGG	-0.234
ATTACGAC	0.294
GAGTCCCA	-0.141
CTACATTA	0.0261
CACAAACA	0.091
AGAACACC	-0.0606
CCATTAGA	-0.271
ATCTAATG	0.0674
ACACAAGA	0.128
GAGATTCC	-0.0509

Sequence	PBM E-score
AATCTTCC	-0.187
ATGTTAGG	0.041
AGAAGTCT	-0.118
ATACAGCA	-0.0259
TACTTGGA	0.186
GTGACGGA	0.352
CAGCCGGG	-0.229
TATGTTAA	0.162
GGCCCTGA	-0.208
CGCGACTA	-0.0629
AAAAGACT	-0.128
AATGTCAT	0.356
GACGAGAC	-0.0666
CGCTCTAA	0.0533
TAGAGTCA	-0.2
ATGCTCCC	-0.354
GTTTTCCA	0.185
ATCGGACG	-0.186
GGTGAAGA	-0.0221
ACTAGCGG	-0.166
CAAGGAAA	0.0274
CGAGGGGC	-0.228
CCCACTCG	-0.365
ATTAGTTC	0.155
ACCTTTCC	-0.205

Sequence	PBM E-score
TAGGGCCA	-0.152
AAAAGTTG	0.0259
TAGGCTGA	-0.0803
CGCCAATC	0.0649
ACCGTCAG	-0.0719
CAAACTCA	0.0635
CGCAGGAC	-0.166
CATATATG	0.341
ACTTCTTC	0.111
TCAGAAAA	0.105
AAGGTCAC	-0.101
CCTGCTGA	0.0736
CCCCTCTA	-0.297
AACTACAG	-0.121
GAGCAAGC	-0.227
AGGGGGAA	-0.24
AATCTAGT	0.137
CCGAACAA	-0.0345
AAGGTTGA	0.0598
CTCAGCAG	-0.203
CGTTCACA	0.0373
CACCAGGA	0.016
TACGGTGA	0.166
GCCAGGGC	-0.275
CTCTGCCC	-0.178

Sequence	PBM E-score
AAGGACTA	-0.115
AGCGGGCC	-0.0486
CGCCCTCC	-0.22
ATTCAGGG	-0.0542
CGCATTGA	0.223
CTCTGAAC	-0.17
CGGATGAC	0.321
CGCTTGAC	-0.0844
CGTATTAC	0.194
GACCCTAA	-0.095
GAGTTTAA	0.157
CCACTCGC	-0.189
CAGTCGGG	-0.122
TACGCACA	0.117
CGCTGGGC	-0.2
ACAAATAA	0.278
CGATCGCA	0.141
AGGTCCGC	-0.32
AAAGCTAA	0.0854
GGACCTGA	-0.162
ATGCAGGG	-0.136
GCTATCAC	-0.059
GTACGCGA	0.0765
TGGCCACA	-0.0413
ACAAATTG	0.0939

Sequence	PBM E-score
ATATCCGG	-0.158
CCTGGTTA	-0.0917
TCTCAGCA	-0.138
TATTCGGA	0.138
GAACCGGA	-0.111
CGACCGAC	-0.00451
TGGGCGAA	-0.132
AGGATGCA	-0.0624
ATCCGTTA	0.292
AGTAATCA	0.116
CAAAGACA	0.144
ACGTCCTA	0.0158
GAACGCAC	0.0723
AAGGACTC	-0.228
AAACGTAG	-0.0946
AACAGTTG	-0.0544
ATTAGCGC	0.118
ACCCGCCT	-0.188
ATCCACTC	0.0244
TCGAGCCA	-0.0851
ACCTTTTG	-0.203
CTCCAGTC	-0.133
CGGAAACG	-0.0295
AGTGAGGG	-0.256
ACGGCATA	0.245

Sequence	PBM E-score
AATCTCGC	0.176
AAGCACAA	0.149
CAGCATTA	0.0701
CTAGCCAG	-0.212
GGCTATAC	-0.171
AACTTTTG	0.111
ACCTAACT	0.125
GAATCCGA	-0.0559
GATGTGGA	0.0375
AGGTGAAC	-0.114
CTTCGTAC	-0.193
GACCCCCA	-0.47
CCTCAACG	-0.102
ATCATTCC	0.0946
CTACAAAC	0.0213
CAAACATA	-0.07
ATGTTCGG	-0.06
ACGTGATC	0.164
CTATACTA	0.0578
AGACCAAA	-0.0563
GCAATTAA	0.145
AAGGAGAG	-0.258
AGAACAGC	-0.00087
ATCATAGC	0.232
GAACTACC	-0.157

Sequence	PBM E-score
GAACACGC	0.0457
CTGCTGAC	0.056
CTAATCTA	-0.0326
GTCCTAGA	-0.246
AAACCATG	-0.0483
TGACGTCA	0.5
ACCTTTCA	-0.116
GACGATCC	-0.00749
ACGCGGCG	0.363
CTATGGGA	-0.193
AAGTGCCC	-0.111
AAGAGCCT	-0.00834
ATGCTAAG	-0.0559
AACGTGTG	0.0429
CTCCAATC	-0.0848
GCCCAACC	-0.061
CAGACACG	-0.15
ATATTGTC	0.193
TCTTAAGA	0.0388
AAATCGGG	0.00053
ATATCTAA	0.0722
CTCGGAGA	-0.133
GTCAGATA	0.0313
ACGCTCAC	0.0778
GATACAGC	-0.0537

Sequence	PBM E-score
CTGATTGC	0.0225
ACTGCCGA	-0.0588
CACACAAC	0.0547
GCTACAGC	-0.0634
GATTGGCC	-0.165
AAACAGTT	0.0958
GCCCCCCA	-0.477
ACTTTTCT	0.0401
ATGCTGCA	-0.0817
AAGACTCA	-0.215
AGTTGCAA	0.1
ACGCACTC	0.163
AGTAGCAT	-0.0319
AAACTTGA	0.042
ACATACGC	-0.0406
AAATACTT	0.14
GGCGTAAC	-0.0656
ATGATACA	0.277
AACCCGCT	-0.28
ACTGAATA	0.197
AGAGACCA	-0.12
AACGACTA	0.108
TCCGGCAA	-0.0684
CGAGGTAA	-0.0574
CTTAGGTA	0.102

Sequence	PBM E-score
CAATCACG	0.0886
TGTAAGAA	0.288
AATAATGG	0.176
TAACTAGA	0.249
CGGTTATC	-0.0839
GGTAGATA	-0.0319
ATAAACAG	0.0792
ACATGAAC	0.0739
ATCACAGG	-0.00088
TGCTCCAA	0.0224
CCATAGGC	-0.218
ACGAGCTG	-0.0472
CAAGCGCA	0.0897
CTTCTGAC	0.095
AATTTCTG	0.142
GAGCATAA	0.125
AAATTTAA	0.242
ATACGTAG	0.186
GTTCTGCA	-0.0201
CCGTGCTA	-0.121
ACTCAGCC	-0.123
TCTCGTAA	0.305
GTATTCAC	0.149
CCCAGTCG	-0.268
ATGCTACG	0.0737

Sequence	PBM E-score
AAACGTAC	0.0107
ACCGGCGT	-0.089
TCGCTACA	-0.347
ATGAATGC	0.132
CTCATAAC	0.057
ATGACAAT	0.267
CGCCTCTC	-0.277
GAATGCTC	-0.205
CAGGCTGA	-0.108
CCACCAAC	-0.113
TAAAGACA	0.00445
CTCACCGC	-0.0709
GCACCCGC	0.0394
AGGGTGAT	0.152
CGAATCGC	0.005
AGTTAATA	0.216
AGACAGCT	-0.22
CTTGAGAC	-0.193
CATGACCG	0.0772
CACGAATG	0.0198
ACGCCTTC	-0.0283
AGACCTCT	-0.216
ATAGGTAA	0.0762
ACTGCACT	-0.0549
CGCAAAAC	0.231

Sequence	PBM E-score
CGAAGACC	-0.16
CTCTTAAG	-0.0771
AGTCGCCA	-0.329
ATCCCCGG	-0.282
CTTTGAGC	-0.225
ATGCCCAT	-0.156
ACTGCACA	-0.0951
CATCGTCG	-0.112
GGGAAGAA	-0.0773
ACACAAGG	0.0528
ATAGGTCG	-0.126
ATCCTGCG	-0.0914
TCCTTCCA	-0.178
CATTATTC	0.0584
CAGGGAGG	-0.181
CCACGACA	-0.172
ACGCTGGA	-0.0876
CTGTTATC	0.102
GATATTTA	0.138
CGTCAACC	0.377
TAGTTGCA	0.094
CAGAAGCG	0.0621
CGTGCGGC	0.321
GTTTTAAA	0.196
GCGGGTGA	0.207

Sequence	PBM E-score
GTGTCCAA	0.0765
GTAATTAC	0.287
ACCGTAGC	-0.17
ACCTCATG	0.116
GCCGCAGC	0.127
GGAGAATA	0.103
ATTGCAGG	0.0558
TTTACAAA	0.226
AGATGGTG	-0.236
ATTGAAAT	0.251
CCGGCGCG	-0.0219
TATGTAAA	0.303
ATCATCAG	0.259
AGTATCAA	0.213
CCGCTTCG	-0.195
CGGTTGGA	-0.166
AACAAGCA	-0.0992
CAACGCGA	-0.125
ACGGACGC	0.0161
ACCGCGCA	-0.096
GTTGGCCA	-0.132
GAACGAGA	-0.0792
CCACTACG	-0.0331
GGTGGGCA	-0.155
AAACGTCA	0.463

Sequence	PBM E-score
ATTCGGTC	0.148
GAGACAGA	0.0353
ACGCACGT	0.0305
ACGATAGA	-0.00516
CCATGTTC	-0.0334
AGATCCGG	-0.205
AAAAGAAT	0.216
GACGCGAA	0.0485
TACGACAA	0.0779
CGCGTACC	-0.0413
ACCACTCC	-0.256
ACAGGTAT	0.121
AGAAGATG	-0.0385
GTGCGAAC	-0.19
AGCCTTTA	0.0465
ATCGCGGA	-0.244
CTACAGTC	-0.134
ACATAACG	0.175
CCCCGTGC	0.0645
CCTTTATA	-0.0148
ATTTGCGA	0.186
CCTCCACG	-0.00565
AAGGGGAG	-0.344
CGGGTAGA	-0.172
CATCACCA	0.372

Sequence	PBM E-score
CTGCAGTA	-0.00258
TCTAAAAA	0.118
ACCTTTTC	-0.133
GTTTGACA	0.118
CCCGCCGC	0.126
TGAAAGAA	0.201
CGTCCCGA	-0.208
CCCTAGAA	-0.081
CAGAACGG	-0.0224
ACACGTAT	0.238
ACTGATCC	-0.0776
AACCACCC	-0.173
GACTATAA	0.0702
CTGAAACC	-0.0192
AAACAAAT	0.192
GCAAAACC	-0.128
AATCACAG	0.0637
CAATTACG	0.346
CTACCGAC	-0.13
